Experimental data from ChEMBL document CHEMBL1201862, “PubChem BioAssay data set” (2004).
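Each compound was tested at five concentrations against cells in 96-well plates for 48 hours. Here, GI50 denotes the concentration required for 50% inhibition of growth.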 Active and inactive are the calls of the source. Cut-off read from the data, not from the text of the source: active = GI50 up to about 1.1 µM and inactive = higher.

System: NCI-H322M
Test: inhibition of tumour cell growth, NCI panel, 48 h

Row | SMILES | GI50
1 | O=C(O)c1ccccc1-c1ccccc1C(=O)Nc1ccc2c(c1)Cc1ccccc1-2 | inactive: 32.7 µM
2 | COc1c(-c2ccc(F)cc2)oc2c(CC(=O)O)cccc2c1=O | inactive: > 100 µM
3 | O=C(/C=C/c1ccc(O)c(O)c1)OCCc1ccc2ccccc2c1 | inactive: 11.9 µM
4 | O=C(NNC(=O)c1ccccc1O)c1ccco1 | inactive: > 100 µM
5 | C=C1C(=O)O[C@@H]2C[C@@H](C)[C@@H]3C=CC(=O)[C@@]3(C)[C@@H](OC(=O)CC(=O)O[C@H]3[C@@H]4C(=C)C(=O)O[C@@H]4C[C@@H](C)[C@@H]4C=CC(=O)[C@]43C)[C@H]12 | active: 0.259 µM
6 | O=S(=O)(c1ccccc1)N1CCN(S(=O)(=O)c2ccccc2)c2ccccc21 | inactive: > 100 µM
7 | Clc1cccc(Cl)c1C(Nc1nncs1)Nc1nncs1 | inactive: 27.2 µM
8 | CC1(CCC(=O)OC2CCCCC2)OCCO1 | inactive: > 100 µM
9 | COc1cc2cc(C(=O)N3CC(COS(C)(=O)=O)c4c3cc([N+](=O)[O-])c3ccccc43)[nH]c2c(OC)c1OC (stereo not given) | inactive: > 46.6 µM
10 | NNC(=S)N1CCN(C(=S)NN)CC1 | inactive: 70.8 µM
11 | CC(C)(Cl)C(Br)CC/C(=C/CBr)CBr.CC(C)(Cl)C(Br)CC/C(=C\CBr)CBr (stereo not given) | inactive: 14.8 µM
12 | Cc1nc(O)nc(CC(O)(c2ccccc2)c2ccccc2)c1-c1ccccc1 | inactive: > 100 µM
13 | Cc1ccc(NC(=O)C2C3CCC(O3)C2C(=O)O)cc1 (stereo not given) | inactive: > 100 µM
14 | O=C1c2cc(O)c(O)cc2O[C@H](c2ccc(O)c(O)c2)[C@H]1O | inactive: > 100 µM
15 | C=C1C2CCCC1C1(S(C)(=O)=O)CCCCC21O (stereo not given) | inactive: > 100 µM
16 | Cc1cc2c(cc1Cl)SSc1cc(Cl)c(C)cc1S(=O)(=O)Nc1nc(N)nn1C(O)n1nc(N)nc1NS2(=O)=O | inactive: > 10 µM
17 | COC(=O)C1CCCC2(C1)OCCO2 (stereo not given) | inactive: > 100 µM
18 | S=c1[nH]n2c(CCCCCCCCc3nnc4sc(=S)[nH]n34)nnc2s1 | inactive: > 100 µM
19 | O=C(OCc1ccccc1)N1c2cc([N+](=O)[O-])ccc2C(=O)N2CCC[C@H]2C1O (stereo not given in full) | inactive: > 100 µM
20 | CCCC(CC)c1c(O)c(O)c(C(CC)CCC)c(C(CC)CCC)c1C(CC)CCC (stereo not given) | inactive: > 10 µM
21 | C[C@]12CCC[C@H](O)[C@H]1C[C@H](CO)CC2 | inactive: > 100 µM
22 | O=C(NCCNCCO)N/N=C/c1ccc([N+](=O)[O-])cc1 | inactive: 71.1 µM
23 | Cn1c(C2CCCc3c2c2ccccc2n3C)cc2ccccc21 (stereo not given) | inactive: > 318 µM

Row | SMILES | GI50
24 | CC(=O)CCn1ncc(Cl)c(Cl)c1=O | inactive: 17.2 µM
25 | Oc1ccc(Cc2cc(Cc3ccc(O)cc3)cc(Cc3ccc(O)cc3)c2)cc1 | inactive: > 50 µM
26 | COc1cccc(NC(=O)CC(=O)N2NC(C)C(/N=N/c3cccc(C(=O)O)c3)C2=O)c1 (stereo not given) | inactive: > 100 µM
27 | CC(C)(CN)SCc1ccccc1 | inactive: > 100 µM
28 | CC1=NN(c2ccc(C)cc2)C2(C1)SCC(=O)N2c1nc2ccccc2s1 (stereo not given) | inactive: 22.1 µM
29 | COc1cccc(C2C(C(=O)Nc3cc(=O)n(C)c(=O)n3C)=C(C)NC(C)=C2C(=O)Nc2cc(=O)n(C)c(=O)n2C)c1O | inactive: > 100 µM
30 | Cc1nc(Nc2ccccc2)sc1C(=O)CC(=O)C(=O)NC12CC3CC(CC(C3)C1)C2 | inactive: > 100 µM
31 | C=CCCn1nc(-c2ccccc2)oc1=O | inactive: > 100 µM
32 | O=C1CN(/N=C/c2ccc(-c3ccc(F)cc3)o2)C(=O)N1 | inactive: > 100 µM
33 | Cc1cccc(-c2cccc(COCc3cccc(-c4cccc(CO)n4)n3)n2)n1 | inactive: > 50 µM
34 | CCCCCCCCCCCCOC(=N)N1CCOCC1 | inactive: 16.5 µM
35 | C[C@]12CC[C@H]3[C@@H](CCC4=CC(=O)CC[C@@]43C)[C@@H]1CC[C@@H]2C(=O)Nc1ccc([N+](=O)[O-])c(C(F)(F)F)c1 | inactive: 18.1 µM
36 | COc1cc2c(cc1OC)C1CN3C(=O)CCC3C(O)C1c1cc(OC)c(OC)cc1-2 (stereo not given) | inactive: > 100 µM
37 | N#CC1(C#N)C2C=CC(C3CC=CC32)C1(C#N)C#N (stereo not given) | inactive: > 10 µM
38 | COc1ccccc1N1C(=O)/C(=C\c2ccccc2)SC1c1cc(OC)c(OC)c(OC)c1 (stereo not given) | inactive: 32.6 µM
39 | NC(=S)NS(=O)(=O)c1ccc(F)cc1 | inactive: > 100 µM
40 | Cc1cc2c(cc1C)[n+]([O-])c(C(=O)/C=C/c1ccc3c(c1)OCO3)c(C)[n+]2[O-] | inactive: 53.3 µM
41 | O=C(O)C1C2C=CC(O2)C1C(=O)NCc1ccncc1 (stereo not given) | inactive: > 100 µM
42 | CCOCC(=O)N(C)c1cccc2c3c(n(C)c12)CCCCC3 | inactive: > 100 µM
43 | CC(C(=O)ON1C(=O)CCC1=O)c1ccc(C(=O)c2ccccc2)s1 (stereo not given) | inactive: > 100 µM
44 | CCOC(=O)c1c(-c2ccc(OC)cc2)c(C#N)c(=S)n(C2OC(COC(C)=O)C(OC(C)=O)C(OC(C)=O)C2OC(C)=O)c1-c1ccccc1 (stereo not given) | inactive: > 100 µM
45 | C(=N\OCCc1ccccc1)/c1cccnc1 | inactive: > 100 µM
